The supplement of paper PMC7826260
The other results are listed elsewhere or left out. Each Rep nickase domain was tested in vitro on the same pool of single strands for 1 h at 37 °C with 3 µM enzyme; only the middle of the 90-letter strands is printed. Numbers give uncut DNA relative to the enzyme-free pool, as log2; uncut sequences lie near 0, cut ones below; no hit call is given. Reads are scaled to the total, so uncut sequences can rise above 0 when many others are cut.

How the values were obtained:
Assay in all cases: uncleaved DNA left, log2 of reads against the no-enzyme library (log2 ratio); higher = less cleavage (more negative = more Rep cleavage of the k-mer); sequences stand for … in CTCGTCCG…ACCGGAGA
[1] = system: T1, Rep nickase domain of Muscovy duck circovirus
T1 sequence (residues 1-111 of Rep, tag left off): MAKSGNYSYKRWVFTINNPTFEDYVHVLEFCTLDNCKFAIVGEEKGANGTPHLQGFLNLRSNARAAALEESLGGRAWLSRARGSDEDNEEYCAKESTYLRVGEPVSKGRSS
Description: (§1)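 A pool of 90-nt single-stranded DNAs with seven random bases just before the constant AC of the nick site (name = the seven bases) was cut by 3 µM recombinant His6-SUMO-tagged Rep nickase domain (300 nM DNA, 50 mM HEPES pH 8.0, 50 mM NaCl, 1 mM MnCl2, 1 h, 37 °C, three replicates). Uncut DNA was amplified and sequenced.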

[2] = system: T2, Rep nickase domain of banana bunchy top virus
T2 sequence (residues 1-94 of Rep, tag left off): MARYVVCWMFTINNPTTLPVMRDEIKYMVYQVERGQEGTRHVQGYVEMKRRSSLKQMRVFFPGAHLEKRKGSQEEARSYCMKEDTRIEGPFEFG
Description: as §1

[3] = system: T3, Rep nickase domain of cabbage leaf curl virus
T3 sequence (residues 1-116 of Rep, tag left off): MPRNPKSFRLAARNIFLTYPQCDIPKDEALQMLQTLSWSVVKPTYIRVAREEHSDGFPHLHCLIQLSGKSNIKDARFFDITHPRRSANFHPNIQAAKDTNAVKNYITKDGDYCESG
Description: as §1

[4] = system: T4, Rep nickase domain of chickpea chlorotic dwarf virus
T4 sequence (residues 1-124 of Rep, tag left off): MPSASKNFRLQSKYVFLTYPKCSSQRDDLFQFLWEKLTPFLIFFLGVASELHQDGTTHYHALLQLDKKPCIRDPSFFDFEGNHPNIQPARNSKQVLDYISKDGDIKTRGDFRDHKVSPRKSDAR
Description: as §1

[5] = system: T5, Rep nickase domain of faba bean necrotic yellows virus
T5 sequence (residues 1-98 of Rep, tag left off): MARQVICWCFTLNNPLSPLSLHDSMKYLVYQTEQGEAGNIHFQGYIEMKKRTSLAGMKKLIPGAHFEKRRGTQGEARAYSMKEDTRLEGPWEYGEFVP
Description: as §1

[6] = system: T6, Rep nickase domain of maize striate mosaic virus
T6 sequence (residues 1-117 of Rep, tag left off): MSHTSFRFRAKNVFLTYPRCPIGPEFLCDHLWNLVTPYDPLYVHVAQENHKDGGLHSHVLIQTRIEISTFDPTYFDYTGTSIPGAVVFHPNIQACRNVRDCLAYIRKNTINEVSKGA
Description: as §1

[7] = system: T7, Rep nickase domain of porcine circovirus 2
T7 sequence (residues 2-116 of Rep, tag left off): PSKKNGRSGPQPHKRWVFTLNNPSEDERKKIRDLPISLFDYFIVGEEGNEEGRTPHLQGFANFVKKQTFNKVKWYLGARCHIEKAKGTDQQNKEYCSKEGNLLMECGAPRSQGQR
Description: as §1

[8] = system: T8, Rep nickase domain of tomato yellow leaf curl virus
T8 sequence (residues 1-136 of Rep, tag left off): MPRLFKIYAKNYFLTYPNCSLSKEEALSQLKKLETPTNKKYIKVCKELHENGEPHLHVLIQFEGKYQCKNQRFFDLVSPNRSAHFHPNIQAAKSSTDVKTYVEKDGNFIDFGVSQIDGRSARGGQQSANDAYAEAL
Description: as §1

[9] = system: T9, Rep nickase domain of wheat dwarf virus
T9 sequence (residues 1-137 of Rep, tag left off): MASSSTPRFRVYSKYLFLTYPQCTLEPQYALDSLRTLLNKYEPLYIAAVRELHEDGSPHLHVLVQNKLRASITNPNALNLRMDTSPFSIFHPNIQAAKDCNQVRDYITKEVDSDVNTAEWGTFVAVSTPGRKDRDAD
Description: as §1

Sequence	uncleaved DNA left (log2) [1]	uncleaved DNA left (log2) [2]	uncleaved DNA left (log2) [3]	uncleaved DNA left (log2) [4]	uncleaved DNA left (log2) [5]	uncleaved DNA left (log2) [6]	uncleaved DNA left (log2) [7]	uncleaved DNA left (log2) [8]	uncleaved DNA left (log2) [9]
CGGGGTG	0.109	-0.066	-0.0706	-0.061	0.0859	0.0528	0.161	0.0361	-0.0932
TTGCTAT	-0.197	-0.175	-0.522	-0.917	-0.127	-1.12	-0.136	-0.0446	-0.175
CACTCGG	0.0839	0.156	0.479	1.32	0.0939	1.3	0.243	-0.028	0.103
TCACTCA	-0.133	-0.0353	-0.116	-1.3	0.0137	-0.449	-0.162	0.0198	-0.0849
CATAAGT	-0.0311	-0.122	-0.364	-0.945	0.0558	-1.19	-0.127	0.0699	-0.0573
GACTACG	0.0347	0.0587	-0.608	-0.812	0.0133	-0.801	0.191	0.0371	0.0756
CTGTCAG	-0.0094	-0.131	-0.81	-0.568	0.0107	-0.929	-0.0233	-0.0301	-0.194
TTTTCGT	-0.162	-0.15	-0.334	-1.02	-0.131	-1.25	-0.296	-0.125	-0.123
TTGCAAG	-0.0528	-0.136	-0.83	-0.0808	0.0334	-0.991	0.0351	0.0391	-0.205
TAAGGTC	-0.0132	-0.0168	0.0597	-0.191	-0.0252	1.2	-0.244	-0.0402	-0.0747
AACTACC	-0.0821	-0.118	-0.245	-2.44	-0.021	-0.469	-1.52	-0.0364	-0.00908
GCAGCAA	-0.116	-0.0841	-0.154	0.0891	-0.22	-0.485	-0.00517	-0.0319	-0.0697
CAGGATC	0.189	-0.0674	0.22	1.3	0.112	1.34	0.111	-0.1	-0.0583
CCGTTGT	-0.056	-0.0916	-0.205	-0.729	-0.113	-0.787	-0.979	-0.0159	-0.0795
ATTGCCG	-0.0368	-0.0119	-0.635	0.844	0.051	-0.173	0.0739	0.0309	-0.0359
GAGCGGG	0.0268	0.118	0.0345	0.472	0.0185	1.04	0.125	0.154	-0.0283
CTGAATT	-0.184	-0.389	-0.276	-2.33	-0.26	-0.557	-1.46	-0.093	-0.131
AACAGTT	0.0573	0.0129	-0.66	-2.36	0.0437	-0.557	-2.76	0.103	-0.0686
AGTTCGG	0.125	0.0389	0.419	1.31	-0.016	1.65	0.0975	-0.0815	0.141
GGTGTTC	0.0574	-0.0187	0.408	0.974	-0.0224	1.83	0.139	-0.0289	0.00216
CTGGCAA	0.000338	0.0298	-0.016	0.0793	0.0664	-0.491	0.145	-0.00445	-0.00112
GTATAGA	0.146	0.181	0.381	0.825	0.0577	1.2	0.22	0.121	0.262
TGTCGGC	-0.0157	-0.016	0.227	0.167	-0.193	-0.119	-0.00214	-0.147	-0.0351
ACTTAAA	-0.133	0.0614	-0.197	-0.145	-0.0595	-0.805	0.0284	-0.194	0.00821
ATGCTAC	-0.943	-0.0918	-0.681	-2.25	-0.0885	-0.973	-0.566	-0.0497	-0.16
GGACTGG	0.0902	0.0527	0.556	1.44	-0.0184	1.91	0.166	0.0376	0.156
CAGAGGG	0.0952	0.0245	-0.449	-0.325	0.197	-0.93	0.161	0.00912	-0.0415
TCGCCTT	0.13	-0.0831	-0.0458	-1.5	-0.00352	-0.243	-0.419	-0.0302	0.0307
CGTCAAT	0.0864	0.0915	0.578	0.966	0.0264	1.02	-0.208	0.103	0.0788
AAAACGT	0.101	0.0378	-0.197	-1.06	0.0648	-0.8	-0.0571	0.0197	-0.0782
